# Experimental data from article PMC4081100.
# The entries are a selection whose mix differs from that of the whole data set. For some of these results: At the low end of the ranking the order means little. The list shows a part of the results. For some of these results: The source does not settle which construct or isoform was used.
# Legend:
# Assay in all cases: universal protein binding microarray (PBM)
# Conditions in all cases: transcription factors of Arabidopsis thaliana; high values mean tight binding; most listed sequences are background and not binding sites; double strand, one strand shown
# [1] = biological target: GST-NTL6(1-168) (UniProt Q9SCK6)
# [2] = biological target: T1, GST-ANAC019 NAC domain (UniProt Q9C932)
# T1 sequence: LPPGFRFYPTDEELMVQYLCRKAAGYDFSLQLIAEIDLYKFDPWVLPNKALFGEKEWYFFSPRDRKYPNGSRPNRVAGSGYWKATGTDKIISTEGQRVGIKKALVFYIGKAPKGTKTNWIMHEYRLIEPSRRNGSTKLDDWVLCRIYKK
# [3] = biological target: T2, GST-NAP(1-166) (UniProt O49255)
# T2 sequence: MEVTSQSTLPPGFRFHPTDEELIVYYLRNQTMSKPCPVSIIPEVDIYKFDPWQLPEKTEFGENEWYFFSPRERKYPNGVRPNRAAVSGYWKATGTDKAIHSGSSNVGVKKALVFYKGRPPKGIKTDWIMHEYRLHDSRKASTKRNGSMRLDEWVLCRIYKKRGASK
# [4] = biological target: T3, GST-NTL8 NAC domain (UniProt Q9XIN7)
# T3 sequence: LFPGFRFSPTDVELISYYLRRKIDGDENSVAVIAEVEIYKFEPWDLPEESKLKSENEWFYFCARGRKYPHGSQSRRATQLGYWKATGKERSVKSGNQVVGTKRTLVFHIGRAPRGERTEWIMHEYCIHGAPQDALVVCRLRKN
# [5] = biological target: T4, GST-VOZ2 (Arabidopsis thaliana) (UniProt Q9SLB9)
# T4 sequence: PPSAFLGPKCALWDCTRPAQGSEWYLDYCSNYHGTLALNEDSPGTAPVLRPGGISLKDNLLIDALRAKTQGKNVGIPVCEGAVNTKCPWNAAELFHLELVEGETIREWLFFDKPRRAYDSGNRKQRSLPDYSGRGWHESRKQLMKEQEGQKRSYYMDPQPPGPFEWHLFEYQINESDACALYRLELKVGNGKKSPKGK
# [6] = biological target: T5, GST-ANAC092(1-285) full length (UniProt Q9FKA0)
# T5 sequence: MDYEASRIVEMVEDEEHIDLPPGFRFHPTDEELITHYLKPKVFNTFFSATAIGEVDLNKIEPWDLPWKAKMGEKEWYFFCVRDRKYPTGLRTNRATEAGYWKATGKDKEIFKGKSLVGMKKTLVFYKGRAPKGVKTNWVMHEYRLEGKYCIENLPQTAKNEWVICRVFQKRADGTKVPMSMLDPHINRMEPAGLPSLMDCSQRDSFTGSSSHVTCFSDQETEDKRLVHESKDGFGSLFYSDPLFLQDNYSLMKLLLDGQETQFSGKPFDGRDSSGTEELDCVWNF
# [7] = biological target: T6, GST-ANAC092(1-176) (UniProt Q9FKA0)
# T6 sequence: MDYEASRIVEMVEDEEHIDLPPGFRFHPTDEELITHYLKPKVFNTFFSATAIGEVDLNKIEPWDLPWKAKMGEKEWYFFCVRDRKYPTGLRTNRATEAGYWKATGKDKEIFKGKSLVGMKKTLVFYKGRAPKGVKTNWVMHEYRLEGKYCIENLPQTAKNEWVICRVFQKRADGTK
# [8] = biological target: T7, GST-ANAC055(1-171) (UniProt Q9LDY8)
# T7 sequence: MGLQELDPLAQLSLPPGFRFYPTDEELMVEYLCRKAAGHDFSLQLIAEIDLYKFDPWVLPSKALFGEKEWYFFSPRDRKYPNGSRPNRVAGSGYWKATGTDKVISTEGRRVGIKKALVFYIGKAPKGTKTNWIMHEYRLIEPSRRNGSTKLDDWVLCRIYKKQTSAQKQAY
# [9] = biological target: T8, GST-ATAF1 NAC domain (UniProt Q39013)
# T8 sequence: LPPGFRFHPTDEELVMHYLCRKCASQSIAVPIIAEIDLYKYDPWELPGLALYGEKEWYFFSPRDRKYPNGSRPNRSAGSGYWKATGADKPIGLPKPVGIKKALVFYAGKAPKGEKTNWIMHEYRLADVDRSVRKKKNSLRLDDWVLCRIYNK
# [10] = biological target: T9, GST-NST2(1-184) (UniProt Q9M274)
# T9 sequence: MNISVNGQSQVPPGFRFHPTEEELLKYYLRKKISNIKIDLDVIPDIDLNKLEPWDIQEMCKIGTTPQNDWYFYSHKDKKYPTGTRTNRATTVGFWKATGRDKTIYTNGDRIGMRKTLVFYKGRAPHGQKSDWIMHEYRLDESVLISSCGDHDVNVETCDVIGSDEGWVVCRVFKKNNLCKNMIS
# [11] = biological target: GST-WRKY1(266-371) (UniProt Q9SI37)
# UniProt Q9SI37, sequence (Q9SI37 266-371): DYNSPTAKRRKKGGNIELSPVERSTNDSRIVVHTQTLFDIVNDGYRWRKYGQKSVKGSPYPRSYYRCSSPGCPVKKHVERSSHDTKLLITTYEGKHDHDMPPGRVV
sequence,measurement,setting,value
TACGTCAA,binding signal,[1],-0.0544 E-score
same,binding signal,[2],0.216 E-score
same,binding signal,[3],0.241 E-score
same,binding signal,[4],-0.135 E-score
same,binding signal,[5],0.0791 E-score
ACACGTCT,binding signal,[1],-0.0468 E-score
same,binding signal,[2],0.459 E-score
same,binding signal,[6],0.425 E-score
same,binding signal,[3],0.346 E-score
same,binding signal,[4],0.00117 E-score
same,binding signal,[5],-0.0679 E-score
TGACGTAA,binding signal,[7],0.449 E-score
same,binding signal,[1],0.0202 E-score
same,binding signal,[2],0.368 E-score
same,binding signal,[5],0.134 E-score
CTTTCTTC,binding signal,[2],-0.0287 E-score
same,binding signal,[8],-0.0203 E-score
same,binding signal,[4],0.41 E-score
same,binding signal,[5],-0.15 E-score
GCACGTCA,binding signal,[1],-0.0423 E-score
same,binding signal,[9],0.317 E-score
same,binding signal,[3],0.341 E-score
same,binding signal,[4],-0.0746 E-score
same,binding signal,[5],-0.018 E-score
AATGCGTG,binding signal,[1],0.147 E-score
same,binding signal,[2],0.324 E-score
same,binding signal,[6],0.44 E-score
same,binding signal,[10],0.243 E-score
same,binding signal,[4],-0.00978 E-score
same,binding signal,[5],0.185 E-score
CTACGTCA,binding signal,[1],-0.0406 E-score
same,binding signal,[2],0.133 E-score
same,binding signal,[8],0.129 E-score
same,binding signal,[3],0.148 E-score
same,binding signal,[4],-0.238 E-score
same,binding signal,[5],-0.0839 E-score
GTTCCGTA,binding signal,[1],-0.0177 E-score
same,binding signal,[10],0.179 E-score
same,binding signal,[4],0.0478 E-score
same,binding signal,[5],0.0106 E-score
GTCACGCA,binding signal,[7],0.319 E-score
same,binding signal,[1],-0.0736 E-score
same,binding signal,[2],0.307 E-score
same,binding signal,[8],0.236 E-score
same,binding signal,[4],-0.171 E-score
same,binding signal,[5],0.0997 E-score
GTTTCGTA,binding signal,[10],0.163 E-score
same,binding signal,[5],0.0291 E-score
same,binding signal,[11],-0.138 E-score
GCGTGCAC,binding signal,[7],0.372 E-score
same,binding signal,[1],-0.0254 E-score
same,binding signal,[2],0.255 E-score
same,binding signal,[10],0.169 E-score
same,binding signal,[4],-0.1 E-score
same,binding signal,[5],0.0495 E-score
GAAGTAAA,binding signal,[8],0.107 E-score
same,binding signal,[3],0.0102 E-score
same,binding signal,[4],0.222 E-score
same,binding signal,[5],0.0837 E-score
same,binding signal,[11],-0.0673 E-score
GCGTGTAA,binding signal,[8],0.222 E-score
same,binding signal,[6],0.438 E-score
same,binding signal,[4],0.025 E-score
same,binding signal,[5],0.187 E-score
same,binding signal,[11],-0.0493 E-score
ACGTAAGC,binding signal,[8],0.406 E-score
same,binding signal,[3],0.428 E-score
same,binding signal,[4],0.205 E-score
same,binding signal,[5],0.0331 E-score
same,binding signal,[11],-0.0387 E-score
GACTTTTA,binding signal,[7],0.0487 E-score
same,binding signal,[1],-0.0791 E-score
same,binding signal,[9],0.17 E-score
same,binding signal,[6],0.141 E-score
same,binding signal,[3],0.00584 E-score
same,binding signal,[10],0.0285 E-score
same,binding signal,[4],-0.0694 E-score
same,binding signal,[5],0.0331 E-score
ACGCAACC,binding signal,[7],0.483 E-score
same,binding signal,[1],0.0242 E-score
same,binding signal,[3],0.478 E-score
same,binding signal,[4],0.146 E-score
same,binding signal,[5],0.353 E-score
AACACGTC,binding signal,[1],-0.0491 E-score
same,binding signal,[4],-0.0308 E-score
same,binding signal,[5],-0.098 E-score
CGTCAAAC,binding signal,[1],0.0906 E-score
same,binding signal,[2],0.0928 E-score
same,binding signal,[3],0.0647 E-score
same,binding signal,[10],0.159 E-score
same,binding signal,[4],-0.00245 E-score
same,binding signal,[5],0.231 E-score
AAGTCTAC,binding signal,[1],0.202 E-score
same,binding signal,[2],0.0378 E-score
same,binding signal,[6],0.024 E-score
same,binding signal,[3],0.00158 E-score
same,binding signal,[4],0.00999 E-score
same,binding signal,[5],-0.0462 E-score
ACGTAACC,binding signal,[10],0.338 E-score
same,binding signal,[4],0.328 E-score
same,binding signal,[5],-0.0476 E-score
same,binding signal,[11],-0.0534 E-score
AATAGCGT,binding signal,[1],0.0443 E-score
same,binding signal,[2],0.0147 E-score
same,binding signal,[6],0.412 E-score
same,binding signal,[10],0.261 E-score
same,binding signal,[4],-0.0702 E-score
same,binding signal,[5],0.17 E-score
CTACGTTA,binding signal,[3],0.135 E-score
same,binding signal,[4],-0.052 E-score
same,binding signal,[5],0.0548 E-score
GTACGTCA,binding signal,[2],0.413 E-score
same,binding signal,[3],0.363 E-score
same,binding signal,[10],0.244 E-score
same,binding signal,[5],0.163 E-score
